Data: PubChem BioAssay AID588342 (National Center for Advancing Translational Sciences (NCATS), 2011)
Values joined by “and” are separate entries in the source; they are usually repeats but may differ in a detail not shown here. Equal entries are not always repeated. Out of some 360,000 compounds screened, about 25,000 (6.9%) were called active. The shares of active, inactive and inconclusive entries below differ from those in the screen. The call rests on the fitted dose curve; in most records, active means well fitted inhibition curve with a large enough effect; inconclusive means small, poorly fitted or top-dose-only effect; inactive means flat fitted curve, though single readings scatter. Potencies of inconclusive entries are doubtful fits and often do not repeat.

biological target: Luciferin 4-monooxygenase (Photinus pyralis) (UniProt P08659); assay: qHTS profiling assay for firefly luciferase inhibitor/activator using purifed enzyme and Km concentrations of substrates (counterscreen for miR-21 project); settings: purified FLuc, luminescence inhibition; series mostly up to 57.5 µM; further: nearly all actives have a fitted effect of over 55% in size
In short: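 Purified P. pyralis luciferase, 10 nM final, with Km-level 10 uM D-luciferin and 10 uM ATP in 50 mM Tris acetate pH 7.5, 10 mM Mg acetate, 0.01% Tween-20, 0.05% BSA; 6-point qHTS titration about 60 µM downward; luminescence read.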
Potency means the concentration at half of the fitted maximal effect; tags describe the fitted curve by direction and shape.

Sequence of UniProt P08659 (P08659 whole entry, looked up): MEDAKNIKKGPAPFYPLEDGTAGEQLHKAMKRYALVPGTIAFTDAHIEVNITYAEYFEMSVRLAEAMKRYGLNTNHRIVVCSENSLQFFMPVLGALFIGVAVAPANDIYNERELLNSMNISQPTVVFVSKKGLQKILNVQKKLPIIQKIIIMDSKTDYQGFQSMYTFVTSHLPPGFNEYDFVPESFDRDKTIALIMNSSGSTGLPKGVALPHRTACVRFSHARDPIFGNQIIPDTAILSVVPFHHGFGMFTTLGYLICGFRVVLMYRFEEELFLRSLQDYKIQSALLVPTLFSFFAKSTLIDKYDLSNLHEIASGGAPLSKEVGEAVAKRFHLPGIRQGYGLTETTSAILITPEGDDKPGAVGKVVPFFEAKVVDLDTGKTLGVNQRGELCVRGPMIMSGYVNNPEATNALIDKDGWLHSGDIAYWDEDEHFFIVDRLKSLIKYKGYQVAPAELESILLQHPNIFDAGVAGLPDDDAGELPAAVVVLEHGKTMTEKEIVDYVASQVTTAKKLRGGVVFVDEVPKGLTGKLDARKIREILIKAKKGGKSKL

| SMILES | Potency |
| --- | --- |
| CCCCn1c(O)c(C=NC2CC3CCC2(C)C3(C)C)c(=O)[nH]c1=O (stereo not drawn) | inconclusive: 26.9 µM [inhibitor, partial curve, poor fit] |
| O=C1NC(=O)N(c2ccc3c(c2)OCO3)C(=O)/C1=C/c1cccs1 | inconclusive: 9.53 µM [inhibitor, partial curve] |
| N#Cc1c(/N=C/C2C(=O)NC(=S)NC2=O)sc2c1CCCC2 | inconclusive: 26.9 µM [inhibitor, single point] |
| COc1cccc(CN2CCN(C(=O)COc3ccc4ccccc4c3)CC2)c1 | inconclusive: 23.9 µM [inhibitor, partial curve, poor fit] |
| Cc1c(Cc2ccccc2)c(=O)oc2cc(OCc3ccc(C(=O)O)cc3)ccc12 | inconclusive: 26.9 µM [inhibitor, single point] |
| Cc1cc(C=C2C(=O)N(C)C(=S)N(C)C2=O)c(C)n1-c1cccnc1 | inconclusive: 30.1 µM [inhibitor, single point] |
| CCC(C)N1C(=O)/C(=C/c2ccc3c(c2)CCN3CCCCl)C(=O)NC1=S (stereo not drawn) | inconclusive: 33.8 µM [inhibitor, partial curve, poor fit] |
| CC1(C)Cc2c(sc3c2C(=O)NC(c2cccnc2)N3)CO1 (stereo not drawn) | inconclusive: 21.3 µM [inhibitor, single point] |
| Cc1ccc(CNC2=NCCS2)cc1 | inconclusive: 21.3 µM [inhibitor, single point] |
| COc1ccc(-c2n[nH]c(=S)n2-c2ccc3c(c2)OCCO3)cc1OC | active: 12 µM |
| Cc1ccc(C(=O)Nc2ccccc2)cc1S(=O)(=O)N1CCCC1 | inconclusive: 21.3 µM [inhibitor, single point] |
| COc1ccc(N=Nc2c(O)[nH]c(=S)[nH]c2=O)cc1 | active: 6.01 µM |
| O=C1NC(=O)N(c2ccccc2F)C(=O)/C1=C/c1ccc(Sc2nc3ccccc3[nH]2)o1 | inconclusive: 23.9 µM [inhibitor, single point] |
| O=C(Nc1nccs1)C(Cl)(Cl)Cl | inactive |
| Cc1ccccc1-n1c(O)c(/C=N/Nc2nc3c(c(=O)n(C)c(=O)n3C)n2C)c(=O)[nH]c1=S | inconclusive: 30.1 µM [inhibitor, partial curve, poor fit] |
| CCCCC/C(=N\O)c1c[nH]c2ccccc12 | inconclusive: 23.9 µM [inhibitor, single point] |
| O=C1NC(=O)N(c2ccccc2)C(=O)/C1=C/c1ccoc1 | inconclusive: 26.9 µM [inhibitor, single point] |
| CN(C)c1ccc(C=C2C(=O)NC(=S)NC2=O)cc1[N+](=O)[O-] | inconclusive: 23.9 µM [inhibitor, single point] |
| COc1ccc(Cn2c(O)c(/C=N/NC(=O)c3ccccc3O)c(=O)[nH]c2=O)cc1 | inconclusive: 16.9 µM [inhibitor, partial curve] |
| Cc1ccc(NC(=O)Cn2c(=O)oc3cc(S(=O)(=O)N4CCCCCC4)ccc32)cc1Cl | inconclusive: 9.53 µM [inhibitor, partial curve, poor fit] |
| CCOc1cc(/C=N/NC(=O)c2cccs2)ccc1OC(=O)N1CCOCC1 | inconclusive: 30.1 µM [inhibitor, partial curve, poor fit] |

| SMILES | Potency |
| --- | --- |
| CN1C(=O)/C(=C\c2ccc(N3CCCCCC3)cc2)C(=O)NC1=S | inconclusive: 16.9 µM [inhibitor, partial curve] |
| CCCOC(=O)C1C2c3ccccc3C(c3ccccc32)C1C(=O)O (stereo not drawn) | inconclusive: 23.9 µM [inhibitor, partial curve, poor fit] |
| O=C(Nc1ccc(Cl)cc1)Nc1nccs1 | active: 10.7 µM |
| Cc1cc(C)c(Cn2c(C(=O)O)c(C=O)c3ccccc32)c(C)c1 | inconclusive: 33.8 µM [inhibitor, single point] |
| COc1ccc2c(c1OC)CN1CCc3cc4c(cc3[C@@H]1[C@@H]2O)OCO4 | inconclusive: 19 µM [inhibitor, partial curve, poor fit] |
| Cc1ccc(C(=O)Nc2ccc(-n3ccnc3P(=O)(O)c3ccccc3)cc2)cc1 | inconclusive: 33.8 µM [inhibitor, partial curve, poor fit] |
| O=[N+]([O-])c1ccccc1CN1CC=C(c2ccc(F)cc2)CC1 | inconclusive: 21.3 µM [inhibitor, partial curve, poor fit] |
| Nc1c2c(nc3sc4c(c13)CCCC4)CCCC2 | inconclusive: 10.7 µM [inhibitor, partial curve, poor fit] |
| COCCN1Cc2cc(=O)n3c([nH]c4ccccc43)c2C1=N | inconclusive: 21.3 µM [inhibitor, single point] |
| Fc1ccccc1CCNCc1cccc(Cl)c1Cl | inconclusive: 19 µM [inhibitor, partial curve, poor fit] |
| CCc1ccc(N2C(=O)NC(=O)C(CCc3ccncc3)(CCc3ccncc3)C2=O)cc1 | inactive |
| CCOc1ccc2nc(NC(=O)c3cccn(Cc4ccccc4Cl)c3=O)sc2c1 | inconclusive: 23.9 µM [inhibitor, partial curve, poor fit] |
| Cc1ccc(C(=O)Nc2c(C(=O)Nc3ccc(C)c(C)c3)sc3nc(C)cc(C)c23)cc1 | active: 10.7 µM |
| NC(Cc1nc2ccccc2[nH]1)c1ccc(Cl)cc1 (stereo not drawn) | active: 10.7 µM |
| O=C(c1cn(Cc2ccccc2)c2ccccc12)N1CCCCC1 | inconclusive: 37.9 µM [inhibitor, partial curve, poor fit] |
| O=C(Oc1ccc2ccc(OC(=O)N3CCCCCC3)cc2c1)N1CCCCCC1 | active: 13.5 µM |
| Cc1ccc(N2C(=O)NC(=O)/C(=C\c3cc(C)n(-c4cc(C(=O)O)cc(C(=O)O)c4)c3C)C2=O)cc1 | inconclusive: 19 µM [inhibitor, partial curve] |
| CN1CCN(C(=O)COc2ccc(-c3nc4ccccc4s3)cc2)CC1 | active: 0.151 µM |
| CN(C)C(=O)Oc1ccc2c(c1)O/C(=C\c1cccc(Cl)c1)C2=O | active: 26.9 µM |
| O=C1NC(=O)N(c2ccccc2F)C(=O)/C1=C/c1ccc(Oc2ccc([N+](=O)[O-])cn2)cc1 | inconclusive: 16.9 µM [inhibitor, partial curve] |
| Cc1ccc(-c2nc3ccc(Cl)cc3n2OC(=O)N(C)C)cc1 | inconclusive: 26.9 µM [inhibitor, single point] |

| SMILES | Potency |
| --- | --- |
| O=C(O)CCn1cc(C=C2C(=O)NC(=S)NC2=O)c(-c2ccccc2)n1 | active: 23.9 µM |
| O=C(O)CCn1cc(C=C2C(=O)NC(=S)NC2=O)c(-c2cc3ccccc3oc2=O)n1 | active: 16.9 µM |
| O=C(c1cc(-c2cccnc2)nc2ccc(Cl)cc12)N1CCC2(CC1)OCCO2 | inconclusive: 26.9 µM [inhibitor, single point] |
| COc1ccc(/C=C/C2=CCN(C)CC2)cc1 | inconclusive: 26.9 µM [inhibitor, single point] |
| Cc1ccc2cc3cc(C(=O)N4CCC5(CC4)OCCO5)oc3nc2c1 | inconclusive: 21.3 µM [inhibitor, single point] |
| CC(C)Nc1ccc(Nc2ccccc2)cc1 | inconclusive: 23.9 µM [inhibitor, single point] |
| COc1ccc(C2=NOC(COC(=O)c3ccc4ccccc4n3)C2)cc1 (stereo not drawn) | inconclusive: 37.9 µM [inhibitor, single point] |
| Brc1ccccc1Cn1c(-c2cncs2)nc2ccccc21 | inconclusive: 23.9 µM [inhibitor, partial curve, poor fit] |
| COc1cc(/C=C/c2nc3ccccc3c(=O)n2-c2cccc(O)c2)ccc1O | inconclusive: 21.3 µM [inhibitor, single point] |
| O=C(c1cc2c(s1)-c1ccccc1OC2)N1CCC2(CC1)OCCO2 | active: 6.75 µM |
| O=c1c2ccccc2nc(/C=C/c2ccco2)n1-c1ccccc1O | inactive |
| C/C(=N\NC(=O)c1ccccc1)c1c(O)n(Cc2ccccc2)c(=O)[nH]c1=O | inconclusive: 26.9 µM [inhibitor, single point] |
| Cc1c(C(=O)Nc2ccccc2)cc(-c2ccccc2)n1CCCN1CCOCC1 | inactive |
| O=C(Nc1ccc2nc(SCC(=O)N3CCCc4ccccc43)sc2c1)c1ccccc1F | inconclusive: 7.57 µM [inhibitor, full curve] |
| CCc1ccc(N2C(=O)NC(=O)/C(=C/c3ccsc3)C2=O)cc1 | inconclusive: 19 µM [inhibitor, partial curve] |
| O=C(OCc1cc(=O)n2nc(C3CC3)sc2n1)c1ccc(NC(=O)c2ccccc2Cl)cc1 | inconclusive: 15.1 µM [inhibitor, partial curve, poor fit] |
| O=C(N/N=C/c1cccc([N+](=O)[O-])c1)c1cnccn1 | inconclusive: 37.9 µM [inhibitor, partial curve, poor fit] |
| Cc1csc(N2CCc3ccccc32)n1 | inconclusive: 19 µM [inhibitor, partial curve] |
| COc1ccc(OC)c(C(c2c(O)c3ccccc3oc2=O)c2c(C)n(C)n(-c3ccccc3)c2=O)c1 (stereo not drawn) | inconclusive: 9.53 µM [inhibitor, partial curve] and inconclusive: 8.49 µM [inhibitor, partial curve] |
| Cc1ccccc1-n1c(C)cc(/C=C2/C(=O)NC(=O)N(Cc3ccco3)C2=O)c1C | active: 19 µM |
| Cn1nnc2cc(NC(=O)Nc3cccc(Cl)c3)ccc21 | inconclusive: 2.69 µM [inhibitor, partial curve, poor fit] |
